# Assay results from PMC9861212 (Metabolites, 2022).
# Where two headings read alike, the source gives them in different places.
# Assays:
# [1] = Tissue distribution and residue depletion in chickens; conditions: chicken, oral gavage 25 mg/kg twice a day for 7 d
# [2] = Tissue distribution and residue depletion in rats; conditions: rat, single i.m. 25 mg/kg
# [3] = Tissue distribution and residue depletion in pigs; conditions: pig, i.m. 25 mg/kg twice a day for 7 d
# [4] = Metabolite profile of SMZ in chickens (LC-v.ARC/MS-IT-TOF); conditions: within 12 h after dosing
# [5] = Metabolite profile of SMZ in pigs (LC-v.ARC/MS-IT-TOF); conditions: within 12 h after dosing
# [6] = single i.m. 25 mg/kg b.w.
# [7] = Metabolite profile of SMZ in rats (LC-v.ARC/MS-IT-TOF); conditions: within 12 h after dosing
# [8] = chickens; single oral gavage 25 mg/kg b.w.; in one day
# [9] = pigs; single i.m. 25 mg/kg b.w.; in one day
smiles,measurement,setting,value
"CC(=O)Nc1ccc(S(=O)(=O)Nc2cc(C)on2)cc1 [Compound S1, N4-acetyl-sulfamethoxazole]",Concentration of the metabolites in kidney,[1]; 0.25 d,234 ± 87 µg/kg
same,Concentration of the metabolites in kidney,[1]; 3 d,89 ± 34 µg/kg
same,Concentration of the metabolites in kidney,[2]; 0.25 d,4046 ± 584 µg/kg
same,Concentration of the metabolites in kidney,[2]; 1 d,280 ± 79 µg/kg
same,Concentration of the metabolites in kidney,[2]; 3 d,70 ± 21 µg/kg
same,Concentration of the metabolites in kidney,[3]; 0.5 d,8645 ± 987 µg/kg
same,Concentration of the metabolites in kidney,[3]; 3 d,308 ± 56 µg/kg
same,Concentration of the metabolites in kidney,[3]; 7 d,93 ± 33 µg/kg
same,Concentration of the metabolites in kidney,[3]; 14 d,38 ± 11 µg/kg
"Cc1cc(NS(=O)(=O)c2ccc(N)cc2)no1 [Compound S0, sulfamethoxazole]",Percentage of the individual metabolite compared with total concentration of SMZ-related compounds,[4]; chicken Extra (feces/excreta),69.6%
same,Percentage of the individual metabolite compared with total concentration of SMZ-related compounds,[4]; chicken bile,88.2%
same,Percentage of the individual metabolite compared with total concentration of SMZ-related compounds,[4]; chicken plasma (blood),91.2%
same,Percentage of the individual metabolite compared with total concentration of SMZ-related compounds,[5]; pig bile,74.5%
same,Percentage of the individual metabolite compared with total concentration of SMZ-related compounds,[5]; pig feces,12.1%
same,Percentage of the individual metabolite compared with total concentration of SMZ-related compounds,[5]; pig plasma,80.3%
same,Percentage of the individual metabolite compared with total concentration of SMZ-related compounds,[5]; pig urine,24.6%
same,Excreted through urine,"[6]; rats (sexes together), within 14 d",> 75%
same,Percentage of the individual metabolite compared with total concentration of SMZ-related compounds,[7]; rat feces,38.3%
same,Percentage of the individual metabolite compared with total concentration of SMZ-related compounds,[7]; rat plasma,94.5%
same,Percentage of the individual metabolite compared with total concentration of SMZ-related compounds,[7]; rat urine,48.4%
"[3H]c1cc(N)ccc1S(=O)(=O)Nc1cc(C)on1 [[^3H]-SMZ, 2-[^3H]-sulfamethoxazole]",Cumulative excretion recovery rate,[8],75%
same,Recovery of total radioactivity in urine,"[6]; male rats, 0–14 d",75.32 ± 4.54%
same,Cumulative excretion recovery rate,"[6]; rats, in one day",83%
same,Cumulative excretion recovery rate,[9],83%
